The record followed here is US20090162336A1 (published 2009).

This assay addresses T1, taxol-stabilized microtubules made from PC tubulin.
T1 construct: polymer of tubulin dimers; stoichiometries are per tubulin dimer; also called MT; polymerized tubulin
As to the kind of experiment: microtubule pelleting assay, gel densitometry, 30 µM polymerized tubulin.

T1 sequence (P02550 whole entry, chain 1 of 2): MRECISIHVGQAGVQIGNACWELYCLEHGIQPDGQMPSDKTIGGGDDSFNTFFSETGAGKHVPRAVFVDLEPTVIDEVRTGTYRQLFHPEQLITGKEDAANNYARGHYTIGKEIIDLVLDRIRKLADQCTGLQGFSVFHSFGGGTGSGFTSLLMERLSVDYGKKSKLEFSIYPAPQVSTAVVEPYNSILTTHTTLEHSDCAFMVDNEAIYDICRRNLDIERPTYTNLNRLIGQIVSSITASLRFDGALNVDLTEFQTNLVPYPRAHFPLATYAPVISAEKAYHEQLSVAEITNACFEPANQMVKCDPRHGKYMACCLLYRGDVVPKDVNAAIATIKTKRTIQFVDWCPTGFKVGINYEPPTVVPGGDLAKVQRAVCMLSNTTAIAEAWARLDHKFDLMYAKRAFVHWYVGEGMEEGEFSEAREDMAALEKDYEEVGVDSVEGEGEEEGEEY
T1 sequence (P02554 whole entry, chain 2 of 2, further chain): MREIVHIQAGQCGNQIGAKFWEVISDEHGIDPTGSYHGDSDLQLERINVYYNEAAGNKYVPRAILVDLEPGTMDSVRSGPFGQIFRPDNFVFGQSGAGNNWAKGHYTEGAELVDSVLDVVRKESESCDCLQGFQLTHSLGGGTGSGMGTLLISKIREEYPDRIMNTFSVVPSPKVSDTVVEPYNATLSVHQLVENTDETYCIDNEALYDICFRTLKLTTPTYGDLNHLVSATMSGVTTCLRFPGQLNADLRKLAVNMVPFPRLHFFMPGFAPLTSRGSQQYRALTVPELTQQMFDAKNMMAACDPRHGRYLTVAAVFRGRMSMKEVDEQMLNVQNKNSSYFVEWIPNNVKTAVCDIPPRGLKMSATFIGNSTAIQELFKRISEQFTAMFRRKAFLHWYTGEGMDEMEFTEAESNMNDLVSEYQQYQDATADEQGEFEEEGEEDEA

B1: htau23 mutant Ser202-Ala phosphorylated with brain extract (other)
chain: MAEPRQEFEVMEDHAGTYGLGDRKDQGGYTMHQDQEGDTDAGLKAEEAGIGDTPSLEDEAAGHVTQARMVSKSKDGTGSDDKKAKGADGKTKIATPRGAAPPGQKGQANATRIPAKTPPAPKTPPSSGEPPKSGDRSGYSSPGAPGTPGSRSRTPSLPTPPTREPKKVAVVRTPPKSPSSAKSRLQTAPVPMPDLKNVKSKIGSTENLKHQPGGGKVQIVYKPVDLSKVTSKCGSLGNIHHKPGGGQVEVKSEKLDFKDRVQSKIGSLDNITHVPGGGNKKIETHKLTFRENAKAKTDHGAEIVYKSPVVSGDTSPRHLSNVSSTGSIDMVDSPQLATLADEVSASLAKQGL
modifications: phosphorylated in vitro by the brain extract kinase activity
In general, Kd refers to a measure of binding affinity in units of concentration. Higher therefore signals lower affinity. For B1, the Kd stood at 9.4 µM and the “stoichiometry n (tau/tubulin dimer)” value is 0.31 tau/tubulin dimer.
